Results reported in article PMC7324386.
These are yes or no findings as the source states them, for the method shown. In cells and extracts the contact can be indirect. Where a sequence is shown, tags or fusion partners need not be part of it.

By UniProt entry, the sequences of proteins in these tests, tags left out. Residues count along the entry.
UniProt O22476, residues 24-1196: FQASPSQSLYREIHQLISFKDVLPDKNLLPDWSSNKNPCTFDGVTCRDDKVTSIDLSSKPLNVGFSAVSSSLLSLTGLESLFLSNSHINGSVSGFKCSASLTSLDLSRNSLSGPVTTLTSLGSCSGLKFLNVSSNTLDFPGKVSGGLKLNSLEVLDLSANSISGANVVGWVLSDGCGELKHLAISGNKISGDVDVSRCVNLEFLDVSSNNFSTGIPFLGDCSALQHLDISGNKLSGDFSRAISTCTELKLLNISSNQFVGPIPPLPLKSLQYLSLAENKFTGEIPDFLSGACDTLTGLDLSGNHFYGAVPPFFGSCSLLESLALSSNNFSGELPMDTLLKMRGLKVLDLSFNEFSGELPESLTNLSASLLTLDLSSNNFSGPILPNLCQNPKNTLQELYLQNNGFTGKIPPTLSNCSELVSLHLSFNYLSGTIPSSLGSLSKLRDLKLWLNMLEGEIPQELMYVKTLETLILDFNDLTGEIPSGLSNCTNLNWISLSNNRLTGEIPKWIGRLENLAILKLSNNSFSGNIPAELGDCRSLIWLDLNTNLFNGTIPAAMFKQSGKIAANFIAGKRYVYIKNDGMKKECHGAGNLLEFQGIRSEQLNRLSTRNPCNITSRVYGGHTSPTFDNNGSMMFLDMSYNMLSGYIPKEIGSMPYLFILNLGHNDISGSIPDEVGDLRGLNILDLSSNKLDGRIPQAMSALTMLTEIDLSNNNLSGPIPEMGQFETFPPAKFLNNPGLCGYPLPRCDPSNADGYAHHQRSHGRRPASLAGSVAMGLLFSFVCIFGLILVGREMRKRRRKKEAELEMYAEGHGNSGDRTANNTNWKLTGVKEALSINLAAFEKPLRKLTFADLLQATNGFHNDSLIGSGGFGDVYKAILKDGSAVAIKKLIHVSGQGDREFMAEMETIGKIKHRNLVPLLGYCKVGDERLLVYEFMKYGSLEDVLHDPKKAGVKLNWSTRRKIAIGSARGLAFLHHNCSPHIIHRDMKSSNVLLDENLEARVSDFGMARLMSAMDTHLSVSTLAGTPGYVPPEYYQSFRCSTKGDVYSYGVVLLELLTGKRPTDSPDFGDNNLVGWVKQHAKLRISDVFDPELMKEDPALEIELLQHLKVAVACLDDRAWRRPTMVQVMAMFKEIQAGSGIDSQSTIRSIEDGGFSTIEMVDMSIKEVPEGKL

Molecular target: T1, PUX4-HA (Arabidopsis thaliana) (UniProt Q8RWU7)
T1 sequence: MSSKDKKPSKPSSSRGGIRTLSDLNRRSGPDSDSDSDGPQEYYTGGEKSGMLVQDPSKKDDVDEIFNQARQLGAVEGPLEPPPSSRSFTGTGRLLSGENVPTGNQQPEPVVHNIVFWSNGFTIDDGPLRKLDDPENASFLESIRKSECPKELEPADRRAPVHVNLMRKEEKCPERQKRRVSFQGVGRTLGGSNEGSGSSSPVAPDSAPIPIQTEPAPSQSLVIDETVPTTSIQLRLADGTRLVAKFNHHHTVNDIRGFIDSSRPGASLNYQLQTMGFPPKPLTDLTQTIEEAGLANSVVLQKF
Experiment: co-IP; transient coexpression in N. benthamiana leaves; protein extract immunoprecipitated with anti-HA antibody, immunoblotted with anti-HA and anti-GFP

binding: no binding
Substance: BRI1-GFP (from UniProt O22476 24-1196)
